Results published in US20210015895A1 (PROCLARA BIOSCIENCES, published 2021).

Biological target: T1, NAC fibers (non-amyloid beta component of senile plaque, aggregated fragment of alpha-synuclein) (UniProt P37840 61-95)
T1 construct: domain: non-amyloid beta component (NAC); Fibrillar aggregate dry-coated on ELISA plates; also called NAC peptide
Experiment: fiber ELISA, polypeptide at 50 and 200 nM
Protocol: The non-amyloid beta component (NAC) of senile plaque is an aggregated fragment of alpha-synuclein, the aggregate that is the hallmark of Parkinson's disease. NAC peptide ((Bachem H2598) was dissolved in 20 mM NaHCO₃ at 600 uM and centrifuged for 1 hour, 100,000×g at 4° C. Supernatant was neutralized with 2N HCl and mixed 1:1 with 10 mM HCl. The peptide was incubated for 4 days at 37° C. and fiber formation confirmed by ThT fluorescence assay.
Fibers were diluted to 1 μM in PBSA-0.02% and dry-coated on Maxisorp Nunc Immunoplate ELISA plates (ThermoFisher Cat no. 442404) by incubation over night at 37° C. Wells were blocked, 200 μl/well, in Superblock (ThermoFisher Cat no. 37515) for 1 hour at room temperature and washed in PBST-0.05%.
The polypeptide of SEQ ID NO:1 and Polypeptide 86 T41G were separately added to the fiber ELISA at 50 and 200 nM and incubated for 1 hour at 37° C. Wells were washed in PBST-0.05% 6×200 μl before incubation with goat anti-human IgG Fc fragment specific-HRP (Jackson labs Cat no. 109-035-008), 1:2500 in TBST-0.05%; 1% milk block (LabScientific Cat no. 732-291-1940), for 45 minutes in room temperature. Plates were washed in 4×200 ul TBST-0.05%, 2×200 ul PBS before adding 50 ul TMB solution (Sigma T0440) per well. […] The absorbance at 450 nm was recorded in a Tecan plate reader (Infinite M1000Pro).

| Binder | binding result |
| --- | --- |
| Polypeptide 86-T41G (Fc fusion) AETVESCLAKPHTENSFTNVWKDDKTLDRYANYEGCLWNAGGVVVCTGDETQCYGHWVPIGLAIPENEGGGSEGGGSEGGGSEGGGTKPPEYGDTPIPGYTYINPLDGTYPPGTEQNPANPNPSLEESQPLNTFMFQNNRFRNRQGALTVYTGTFTQGTDPVKTYYQYTPVSSRAMYDAYWNGKFRDCAFHSGFNEDPFVCEYQGQSSDLPQPPANAGGESGGGSGGGSEGGGSEGGGSEGGGSEGGGSGGGSGSGARS[human IgG1 Fc not printed] | binds |
| N1-N2-hIgG1-Fc fusion protein (SEQ ID NO:1) (Fc fusion) AETVESCLAKPHTENSFTNVWKDDKTLDRYANYEGCLWNATGVVVCTGDETQCYGTWVPIGLAIPENEGGGSEGGGSEGGGSEGGGTKPPEYGDTPIPGYTYINPLDGTYPPGTEQNPANPNPSLEESQPLNTFMFQNNRFRNRQGALTVYTGTFTQGTDPVKTYYQYTPVSSKAMYDAYWNGKFRDCAFHSGFNEDPFVCEYQGQSSDLPQPPVNAGGGSGGGSGGGSEGGGSEGGGSEGGGSEGGGSGGGSGSGAMVRS[human IgG1 Fc not printed] | binds |
